In the supplement of paper PMC4723716 one finds viability index data, which are given here for 55 molecules.

The full ranking holds about 3,600 compounds; the median of “viability index relative to DMSO control” is about 0.81, and the lowest 2% start at about 0.13. The list shows a part of the results.
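Also: 384-well serum-free SaLSSA: MitoTracker Red CMXRos staining with saponin lysis, high-content imaging, treated-well particle count divided by plate-mean count of DMSO wells.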

The test relates to Plasmodium falciparum NF54 stage V gametocytes. Nature of the test: viability index relative to DMSO control (fraction); higher = less gametocyte killing. The conditions noted are these: 1.25 µM, incubation time: 72 h.
In the case of `CCCOc1ccc(C=Nc2ccc(S(=O)(=O)Nc3ccccn3)cc2)cc1`, the viability index turned out to be 0.985.

`COc1cc(-c2nc(-c3ccc(C)c(C)c3)c(-c3ccc(C)c(C)c3)[nH]2)cc(OC)c1O` yielded a viability index of 0.592.

The molecule `CCOc1ccc(-n2c(=S)sc3c(=O)n(-c4ccc(C)cc4)c(SCC(=O)Nc4cc(OC)ccc4OC)nc32)cc1` came in with a viability index of 0.341.

In the case of `CC(=O)NC(=Cc1ccc(OC(F)F)cc1)C(=O)O`, the viability index was determined as 0.909.

`CCCCCc1ccc(OCCCC[n+]2cccc(C)c2)c(CCCCC)c1` showed a viability index of 0.502.

In turn, `COc1ccc(C2C(C(=O)Nc3cnc4ccccc4c3)c3ccccc3C(=O)N2Cc2ccc(F)cc2)cc1` (stereo not given) returned a viability index of 0.819.

For `CC(C)NC(=O)[C@@H]1C[C@@H](NCc2cccnc2)CN1Cc1ccc2ccccc2c1`, the viability index came to 0.625.

In the case of `N#Cc1ccccc1Cn1nc(-c2cccnc2)oc1=O`, the viability index came to 0.815.

The molecule `COc1cccc(C(C(=O)NC2CCCCC2)N(C(=O)c2snc(C(N)=O)c2N)c2ccc(C)cc2)c1OC` (stereo not given) yielded a viability index of 0.792.

Turning to `O=C1N(c2ccccc2)C[C@@H]2C[C@@H](c3ccc4nsnc4c3)N3CCC[C@@]123`, the viability index is 0.673.

`Cc1ccc(-c2c[n+](CC(=O)c3ccccc3Cl)c3n2CCC3)cc1` showed a viability index of 0.937.

Regarding `Cn1c(=O)n(Cc2ccccc2)c(=O)c2c1nc(SCC(=O)Nc1ccccc1)n2Cc1ccccc1`, the viability index was determined as 0.573.

Take `COC(=O)c1sc(-c2ccccc2)cc1NC(=O)c1ccc(S(=O)(=O)N2CCCCCC2)cc1`: the viability index stood at 0.62.

In turn, `COc1ccc(C2CC(=O)C3=C(C2)NC(C)=C(C(=O)OC(C)C)C3c2ccccc2Cl)cc1OC` (stereo not given) showed a viability index of 0.463.

Molecule `CCC(Nc1ccc(OC)cc1)=C1C(=O)CC(C)(C)CC1=O` yielded a viability index of 0.806.

The molecule `CCCc1c(C)nc2ccccc2c1O` gave a viability index of 0.71.

`CCSC(Cl)=C(NC(=O)c1ccccc1)[P+](c1ccccc1)(c1ccccc1)c1ccccc1` yielded a viability index of 0.0362.

Molecule `CCOc1ccccc1C1C(C#N)=C(SCC(=O)Nc2ccc(Cl)cc2)NC(C)=C1C(=O)Nc1ccccc1` (stereo not given) yielded a viability index of 0.5.

With `CCOC(=O)C1=C(C)NC2=C(C(=O)C(C(=O)OCC)C(c3ccccc3OC)C2)C1c1ccc(Cl)cc1` (stereo not given), the viability index stood at 0.869.

With `CC(C)Cc1nc(N2CCOCC2)c2nnn(Cc3ccccc3)c2n1`, the viability index is 0.779.

Take `Cc1nc(N2CCC(C)CC2)c2c(C)c(C(=O)Nc3ccc(C(F)(F)F)cc3)sc2n1`: the viability index was found to be 0.934.

With `CCN1CCC(NCCC(c2ccccc2)c2ccccc2)CC1`, the viability index stood at 0.687.

In the case of `COc1ccccc1NC1=CC(=NS(=O)(=O)c2cccs2)c2ccccc2C1=O`, the viability index turned out to be 0.0154.

As for `O=c1c2sccc2nc(SCc2cccc([N+](=O)[O-])c2)n1-c1ccc(Br)cc1`, the viability index was found to be 0.867.

`CC(C)CN1CCC(O)(c2ccc3oc(C(=O)Nc4ccc5c(c4)OCO5)cc3c2)CC1` had a viability index of 1.3.

As to `COc1ccc(S(=O)(=O)N2CCC(c3nnc(-c4ccccc4OC)o3)CC2)cc1`, the viability index turned out to be 0.95.

Regarding `O=C(Nc1ccc(F)c(Cl)c1)c1c2c(nc3ccccc13)CCN(Cc1ccccc1)C2`, the viability index stood at 0.497.

In the case of `CCOC(=O)c1c[nH]c2c(ccc3ccccc32)c1=O`, the viability index was determined as 0.667.

For the molecule `CCOC(=O)C1=C(C)N=c2sc(=Cc3c4ccccc4cc4ccccc34)c(=O)n2C1c1cc(OC)ccc1OC` (stereo not given), the viability index was 0.853.

Turning to `COc1cccc(C=C2SC(=Nc3ccccc3)NC2=O)c1OC`, the viability index is 0.668.

With `CC(=O)N(C1=C(N(C)C)C(=O)c2ccccc2C1=O)c1ccc(F)c(F)c1`, the viability index was determined as 0.0288.

The molecule `CCCC1(CCC)NC(=S)N(c2ccc(C)c(C)c2)N1` gave a viability index of 1.11.

`CN1CCN(c2c3c(c(C#N)c4nc5ccccc5n24)CCC3)CC1` showed a viability index of 1.17.

Take `COc1ccccc1C(NC(=O)c1cc(OC)c(OC)c(OC)c1)c1cc(Cl)c2cccnc2c1O` (stereo not given): the viability index came to 0.793.

`CC(=O)Nc1ccc(NC(=O)C(C)(C)CCl)cc1` had a viability index of 0.871.

In turn, `OC(CN1CCN(C2c3ccccc3-c3ccccc32)CC1)Cn1c2ccc(Cl)cc2c2cc(Cl)ccc21` (stereo not given) gave a viability index of 0.609.

Molecule `O=C(Nc1ccc(Cl)c(Cl)c1)Nc1ccc(Cl)c(Cl)c1` registered a viability index of 0.913.

As to `CCOC(=O)c1ccc(N(C(=O)Cc2c[nH]c3ccccc23)C(C(=O)NC2CCCCC2)c2cccc(OC)c2OC)cc1` (stereo not given), the viability index is 0.849.

For the molecule `Clc1cccc(Nc2nc(NCc3ccco3)c3ccccc3n2)c1`, the viability index amounted to 0.927.

Take `Cc1ccc2c(c1)N(CC(=O)NC1CCCCC1C)C(=O)CO2` (stereo not given): the viability index is 1.15.

Molecule `CC(=NNc1nc(-c2ccccc2O)nc2ccccc12)c1ccccc1O` registered a viability index of 0.785.

`N#CC(=Cn1cc(Cc2ccc(Cl)cc2Cl)c2ccccc21)c1nn(CCO)c(N)c1C#N` registered a viability index of 1.11.

Turning to `O=C(O)Cn1cnc2nc3n(c2c1=O)CCC3`, the viability index is 0.943.

In turn, `CCc1ccc(C2C(C(=O)Nc3ccccc3)=C(C)Nc3c(C(=O)Nc4ccc(C)cc4)cnn32)cc1` (stereo not given) registered a viability index of 0.446.

`COc1cc(-c2nc(-c3ccc(Sc4ccccc4)cc3)c(-c3ccccc3)[nH]2)cc(OC)c1O`: the viability index was 0.643.

`COc1ccc(-c2cc3c(nn2)-c2ccccc2C3=O)cc1` registered a viability index of 0.614.

`COCCNCC(O)CON=C1c2ccccc2-c2ccccc21` (stereo not given) registered a viability index of 0.711.

Consider `N#Cc1ccc(NC(=O)NC2CC3CCCC(C2)N3CCc2ccccc2)cc1` (stereo not given), for which the viability index amounted to 0.706.

`Cc1cc(Nc2cccc(C(F)(F)F)c2)nc2ccc(NC(=O)c3cncc(Br)c3)cc12` gave a viability index of 0.892.

For `COc1ccc(-n2nc(C(=O)NCC(=O)Nc3ccc(F)cc3)c3ccccc3c2=O)cc1Cl`, the viability index was 1.02.

In turn, `Oc1c2c(nc3cc(-c4ccc(-c5ccccc5)cc4)nn13)CCCC2` had a viability index of 0.768.

As for `CCc1c(C)nc(SCC(=O)NNC(C)=O)nc1O`, the viability index turned out to be 0.9.

In turn, `Oc1cc(-c2ccccc2)nc2ccccc12` returned a viability index of 0.73.

`Cc1cc(Nc2ccc(OCc3ccccc3)cc2)nc2cc(O)ccc12`: the viability index was found to be 0.386.

In the case of `CCOc1ccc(NC(=O)c2ccc(F)c(S(=O)(=O)NC3CCCCCC3)c2)cc1`, the viability index was found to be 1.
